In PubChem BioAssay AID504333 (National Center for Advancing Translational Sciences (NCATS), 2011):
About 16,000 (4.4%) of roughly 360,000 compounds were called active. This list was built around the results that the source calls inconclusive (neither active nor inactive); the mix of calls is not that of the screen. The call rests on the fitted dose curve; in most records, active means well fitted inhibition curve with a large enough effect; inconclusive means small, poorly fitted or top-dose-only effect; inactive means no such curve, though single readings can be large or run the other way. Where the call is inconclusive, the potency comes from a doubtful curve fit.

Biological target: Bromodomain adjacent to zinc finger domain protein 2B (Homo sapiens) (UniProt Q9UIF8)
UniProt Q9UIF8, sequence (Q9UIF8 whole entry, looked up, the tested form may be a part): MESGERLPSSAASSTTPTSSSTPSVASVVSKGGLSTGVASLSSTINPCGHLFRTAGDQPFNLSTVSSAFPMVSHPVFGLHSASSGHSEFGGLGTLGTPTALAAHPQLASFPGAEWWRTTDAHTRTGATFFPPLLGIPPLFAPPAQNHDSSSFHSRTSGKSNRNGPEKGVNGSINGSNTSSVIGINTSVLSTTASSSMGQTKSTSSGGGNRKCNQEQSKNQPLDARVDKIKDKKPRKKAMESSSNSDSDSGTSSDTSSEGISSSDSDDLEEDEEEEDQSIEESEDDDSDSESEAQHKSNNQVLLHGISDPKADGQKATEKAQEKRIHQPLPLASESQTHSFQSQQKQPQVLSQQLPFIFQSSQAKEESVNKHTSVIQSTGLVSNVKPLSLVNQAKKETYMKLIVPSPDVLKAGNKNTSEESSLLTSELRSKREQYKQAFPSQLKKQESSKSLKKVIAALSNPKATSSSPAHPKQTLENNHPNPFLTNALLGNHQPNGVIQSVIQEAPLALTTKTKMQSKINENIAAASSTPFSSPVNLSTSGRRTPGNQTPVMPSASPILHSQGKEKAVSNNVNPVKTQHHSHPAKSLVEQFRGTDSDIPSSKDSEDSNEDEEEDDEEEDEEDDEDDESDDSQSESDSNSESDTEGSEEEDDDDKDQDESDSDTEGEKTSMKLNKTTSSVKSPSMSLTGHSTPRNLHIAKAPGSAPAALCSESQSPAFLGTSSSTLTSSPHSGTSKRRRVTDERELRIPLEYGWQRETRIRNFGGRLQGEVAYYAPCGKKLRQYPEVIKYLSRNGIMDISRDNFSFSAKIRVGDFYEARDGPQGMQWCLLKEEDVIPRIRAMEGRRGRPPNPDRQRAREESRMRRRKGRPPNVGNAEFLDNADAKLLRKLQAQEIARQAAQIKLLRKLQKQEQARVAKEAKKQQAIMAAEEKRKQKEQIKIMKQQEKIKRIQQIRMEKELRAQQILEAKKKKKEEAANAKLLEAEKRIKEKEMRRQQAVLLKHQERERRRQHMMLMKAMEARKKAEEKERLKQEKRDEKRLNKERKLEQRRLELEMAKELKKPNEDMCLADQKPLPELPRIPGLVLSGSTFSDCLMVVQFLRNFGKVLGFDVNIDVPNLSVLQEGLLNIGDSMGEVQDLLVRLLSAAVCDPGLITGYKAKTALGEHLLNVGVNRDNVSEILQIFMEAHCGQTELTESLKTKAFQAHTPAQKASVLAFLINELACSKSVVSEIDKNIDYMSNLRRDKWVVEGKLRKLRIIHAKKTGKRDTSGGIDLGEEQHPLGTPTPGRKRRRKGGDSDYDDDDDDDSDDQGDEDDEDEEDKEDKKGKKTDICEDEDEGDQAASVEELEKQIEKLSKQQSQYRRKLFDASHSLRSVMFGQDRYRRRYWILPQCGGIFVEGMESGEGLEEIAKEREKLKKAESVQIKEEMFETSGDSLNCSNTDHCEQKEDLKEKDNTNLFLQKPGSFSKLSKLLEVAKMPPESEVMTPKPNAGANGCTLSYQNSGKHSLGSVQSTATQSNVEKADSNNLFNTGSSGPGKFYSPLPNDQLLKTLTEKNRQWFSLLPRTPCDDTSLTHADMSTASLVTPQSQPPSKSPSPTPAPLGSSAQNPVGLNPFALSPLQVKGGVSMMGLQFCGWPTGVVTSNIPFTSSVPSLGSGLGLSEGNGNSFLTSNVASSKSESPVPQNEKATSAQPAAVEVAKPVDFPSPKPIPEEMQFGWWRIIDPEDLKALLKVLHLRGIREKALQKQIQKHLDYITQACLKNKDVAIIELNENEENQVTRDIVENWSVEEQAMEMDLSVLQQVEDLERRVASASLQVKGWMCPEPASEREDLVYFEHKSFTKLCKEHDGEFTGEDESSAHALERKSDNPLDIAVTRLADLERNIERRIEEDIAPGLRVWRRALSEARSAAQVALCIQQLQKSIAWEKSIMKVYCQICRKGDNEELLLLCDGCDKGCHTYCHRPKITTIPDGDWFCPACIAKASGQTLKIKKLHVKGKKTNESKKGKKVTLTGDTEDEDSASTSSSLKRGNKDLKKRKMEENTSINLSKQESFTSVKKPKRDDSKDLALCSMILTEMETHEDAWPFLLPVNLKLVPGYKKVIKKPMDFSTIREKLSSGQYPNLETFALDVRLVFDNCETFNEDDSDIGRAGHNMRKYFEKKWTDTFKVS
Assay: qHTS Assay for Inhibitors of BAZ2B; further: nearly all actives have a fitted effect of over 60% in size
Conditions: AlphaScreen BAZ2B-H3K14Ac peptide displacement; activity change, negative = inhibition: at 114 µM (top of the series)
In short: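 Inhibition is scored as reduced AlphaScreen emission. The BAZ2B/b-H3(5-23)K14Ac complex (50 nM each) in PBS pH 7.4, 0.01% Tween-20 meets compound (up to 110 uM) for 30 min at RT before bead addition.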
On the % scale 0 is the no-effect control and ±100 the full control effect; potency means the concentration at half of the fitted maximal effect; tags describe the fitted curve by direction and shape.

Row | Structure (SMILES) | Potency | activity change, negative = inhibition
1 | Cc1ccccc1CN1CCN(Cc2cc3ccccc3o2)CC1CCO (stereo unspecified) | inconclusive: 89.1 µM [inhibitor, single point] | –
2 | Cc1ccc(NC2CCCN(C(=O)CN3C(=O)c4ccccc4C3=O)C2)cc1C (stereo unspecified) | inconclusive: 39.8 µM [inhibitor, partial curve] | –
3 | CCOc1cc2c3c(c1)C1(Nc4ccccc4S1)C(=O)N3C(C)(C)CC2C (stereo unspecified) | active: 28.2 µM | –
4 | O=C1CN(C(=O)c2c(F)cccc2Cl)C(c2ccc(F)cc2)c2cc(Br)ccc2N1 (stereo unspecified) | – | inactive: -18.7%
5 | C/C(=N\NC(=O)C(C)n1nc(C)c([N+](=O)[O-])c1C)c1ccccc1O (stereo unspecified) | inconclusive: 50.1 µM [inhibitor, partial curve] | –
6 | C/C(=N\NS(=O)(=O)c1ccc(Cl)c([N+](=O)[O-])c1)c1ccc(C)o1 | active: 79.4 µM | –
7 | O=C(/C=C\c1ccco1)Nc1ccc(N2CCN(C(=O)c3ccccc3)CC2)cc1 | active: 70.8 µM | –
8 | Cc1c(C#N)c(N)c(C(=O)c2ccccc2)n1Cc1ccccc1 | inconclusive: 89.1 µM [inhibitor, single point] | –
9 | Cc1ccc(-c2ccc(CCC(=O)O)n2-c2ccc(C)c(Cl)c2)cc1 | inconclusive: 44.7 µM [inhibitor, partial curve] | –
10 | COc1cccc(/C=N/n2c(C3CCCCC3)n[nH]c2=S)c1O | – | inactive: -32%
11 | CC(C)CNC(=S)NC(=O)c1csc([N+](=O)[O-])c1 | inconclusive: 50.1 µM [inhibitor, partial curve] | –
12 | COC(=O)c1sccc1NC(=S)Nc1cc(C)cc(C)c1 | – | inactive: -2.01%
13 | O=C(CSc1nc2c(sc3ccccc32)c(=O)n1CCO)NCc1ccco1 | inconclusive: 89.1 µM [inhibitor, single point] | –
14 | Cc1cccc2cc(CN(Cc3cccnc3)C(=S)NCCCN(C)C)c(=O)[nH]c12 | inconclusive: 50.1 µM [inhibitor, partial curve] | –
15 | COc1ccc(NC(=O)CN2CCN(C3c4ccccc4-c4ccccc43)CC2)c(OC)c1 | inconclusive: 50.1 µM [inhibitor, single point] | –
16 | CC1CCCN(C(=O)Cn2nnc(-c3ccc([N+](=O)[O-])cc3)n2)C1 (stereo unspecified) | inconclusive: 89.1 µM [inhibitor, single point] | –
17 | CCOC(=O)C1(Cc2ccccc2C)CCCN(S(=O)(=O)CC)C1 (stereo unspecified) | – | inactive: -5.26%
18 | S=C(NCc1ccccc1)N1CCn2cccc2C1c1ccncc1 (stereo unspecified) | inconclusive: 50.1 µM [inhibitor, partial curve] | –
19 | CCOc1cc(/C=N/NC(=O)c2cccs2)cc([N+](=O)[O-])c1O | inconclusive: 79.4 µM [inhibitor, single point] | –
20 | COc1cc(CNCc2ccccn2)ccc1OCC(=O)NC(C)(C)C | active: 50.1 µM | –
21 | CCN(CCCNC(=O)COc1cc(=O)n(CC)c2ccccc12)c1ccccc1 | inconclusive: 79.4 µM [inhibitor, single point] | –
22 | C=CCSc1nc2sc3c(c2c(=O)n1-c1ccccc1)CCN(C)C3 | inconclusive: 79.4 µM [inhibitor, single point] | –
23 | O=C(O)c1ccc(Sc2nnc(-c3cccc(Br)c3)o2)c([N+](=O)[O-])c1 | – | inactive: -37.8%
24 | NC(=O)[C@@H]1CC2(CC(c3cccc(NC(=O)[C@H]4CCC(=O)N4)c3)=NO2)CN1C(=O)COc1ccc(Cl)cc1 (stereo partly specified) | active: 79.4 µM | –

Row | Structure (SMILES) | Potency | activity change, negative = inhibition
25 | COc1cc(-c2cc(-c3ccc(O)cc3)nc(N)c2C#N)ccc1O | inconclusive: 89.1 µM [inhibitor, single point] | –
26 | O=[N+]([O-])c1cccnc1Sc1ccc(Cl)cc1 | active: 31.6 µM | –
27 | Cc1nc2ccc(NC(=O)c3ccc([N+](=O)[O-])cc3[N+](=O)[O-])cc2s1 | inconclusive: 39.8 µM [inhibitor, partial curve] | –
28 | Cc1nnc(NC(=O)CSc2nnc(Cc3cccn3C)n2CCc2ccccc2)s1 | inconclusive: 79.4 µM [inhibitor, single point] | –
29 | CCCC(=O)OC1=C(C(C)=O)N(Cc2ccccc2)S(=O)(=O)c2ccccc21 | inconclusive: 79.4 µM [inhibitor, single point] | –
30 | CCc1ccc(N(C(=O)c2snc(C(N)=O)c2N)C(C(=O)NC2CCCC2)c2ccco2)cc1 (stereo unspecified) | inconclusive: 89.1 µM [inhibitor, single point] | –
31 | CCCCC(C(=O)O)C(C)CC(=O)Nc1cccc(C(=O)O)c1 (stereo unspecified) | inconclusive: 79.4 µM [inhibitor, partial curve] | –
32 | CCOC(=O)c1c(C)n(-c2ccc(C)cc2)c2ccc(O)c(CN(C)C)c12 | inconclusive: 56.2 µM [inhibitor, partial curve] | –
33 | CCn1c(SCc2nc(-c3ccccc3)no2)nnc1-c1ccco1 | – | inactive: -6.25%
34 | O=C(NCCCN1CCN(c2ccccc2F)CC1)c1sc2ncccc2c1-n1cccc1 | inconclusive: 50.1 µM [inhibitor, partial curve] | –
35 | O=C(c1ccc(Cl)cc1)[C@@H]1[C@@H]2C(=O)N(c3ccc(Cl)cc3)C(=O)[C@@H]2C2c3ccccc3C=NN21 (stereo partly specified) | – | inactive: -7.18%
36 | S=c1[nH]nc(-c2cccnc2)n1/N=C/c1ccco1 | inconclusive: 89.1 µM [inhibitor, single point] | –
37 | Cc1cc(NC(=O)c2ccc3[nH]c(C)c(C)c3c2)ccn1 | active: 50.1 µM | –
38 | CC(=O)c1ccc(NC(=S)NCCCn2ccnc2)cc1 | inconclusive: 79.4 µM [inhibitor, single point] | –
39 | CC(C)CCNC(=O)Cn1cc(S(=O)(=O)Cc2ccc(F)cc2)c2ccccc21 | inconclusive: 89.1 µM [inhibitor, single point] | –
40 | COc1cc(NC(=O)Nc2c[nH]c(=O)[nH]c2=O)cc(OC)c1OC | – | inactive: -1.57%
41 | C/C(=N\N1CCN(c2ccc(Cl)cc2)CC1)c1ccco1 | inconclusive: 35.5 µM [inhibitor, full curve] | –
42 | Nc1nnc(-c2ccco2)s1 | – | inactive: 17.1%
43 | O=c1c2oc3ccccc3c2ncn1Cc1ccc(Cl)cc1 | – | inactive: 8.91%
44 | Cc1ccc(NC(=O)c2cccc(S(=O)(=O)N3CCN(c4ccc(F)cc4)CC3)c2)nc1 | inconclusive: 28.2 µM [inhibitor, full curve, poor fit] | –
45 | COc1ccc(-c2nc3ccccc3c(=O)n2-c2c(C)n(C)n(-c3ccccc3)c2=O)cc1 | – | inactive: 5.38%
46 | CCc1ccc[n+](-c2[nH]c(=O)sc2/C=N/N=C(\N)[O-])c1 | – | inactive: -26.7%
47 | O=C(Cn1nnc(-c2cccc(C(F)(F)F)c2)n1)NCc1ccc(F)cc1 | – | inactive: -19.7%
48 | COC(=O)c1ccc2c(=O)n(NC(C)=O)c(=S)[nH]c2c1 | active: 50.1 µM | –

Row | Structure (SMILES) | Potency | activity change, negative = inhibition
49 | CN(Cc1ccco1)C(=O)CN1C(=O)NC(c2ccccc2)(c2ccccc2)C1=O | inconclusive: 79.4 µM [inhibitor, single point] | –
50 | CCOC(=O)c1sc(NC(=S)NC(=O)c2ccc(OC)cc2)nc1C | inconclusive: 89.1 µM [inhibitor, single point] | –
51 | COc1cccc(N2CCN(C(=O)c3ccc4c(Cl)c5c(nc4c3)CCCC5)CC2)c1 | inconclusive: 17.8 µM [inhibitor, full curve] | –
52 | O=C1c2cccc3c(Cl)ccc(c23)C(=O)N1O | inconclusive: 50.1 µM [inhibitor, partial curve] | –
53 | Cc1cc2c(cc3c(SCc4cccc(Cl)c4)nnc(C)n32)o1 | active: 25.1 µM | –
54 | Cc1cccc(N(C)C(=O)CCS(=O)(=O)c2cccc3nonc23)c1 | – | inactive: 10.5%
55 | CCc1ccccc1N(CC(=O)NCCSCc1ccco1)S(C)(=O)=O | inconclusive: 79.4 µM [inhibitor, single point] | –
56 | Oc1c(/C=C/C=C/C=Nc2ccccc2)sc(=S)n1Cc1ccccc1 | inconclusive: 2.24 µM [inhibitor, full curve, poor fit] | –
57 | O=C(CSc1nccn1-c1ccccc1)c1ccc(Br)cc1 | inconclusive: 25.1 µM [inhibitor, full curve] | –
58 | O=C(Nc1nc(-c2cc3ccccc3oc2=O)cs1)c1ccco1 | inconclusive: 89.1 µM [inhibitor, single point] | –
59 | CCOc1cccc(C(=O)NC(=S)Nc2ccccc2)c1 | inconclusive: 70.8 µM [inhibitor, single point] | –
60 | COc1ccccc1NS(=O)(=O)c1cc([N+](=O)[O-])ccc1N/N=C/c1sc(N2CCOCC2)nc1-c1ccccc1 | inconclusive: 31.6 µM [inhibitor, partial curve] | –
61 | O=C(c1ccccc1)C(Nc1ccccn1)c1ccccc1 (stereo unspecified) | – | inactive: -17.2%
62 | Cc1cc(C(=O)N/N=C/c2ccc(N(C)C)cc2)c2ccccc2n1 | inconclusive: 89.1 µM [inhibitor, partial curve] | –
63 | CCCCNC(=S)Nc1ccc2nc(N3CCN(CC)CC3)cc(C)c2c1 | inconclusive: 79.4 µM [inhibitor, single point] | –
64 | N#CC1(NC(=O)CSc2nnc(-c3ccccc3F)o2)CCCCC1 | – | inactive: -0.567%
65 | Cc1ccc(NCc2cccnc2)c(Br)c1 | active: 79.4 µM | –
66 | COC(=O)C1=C(O)/C(=C\c2cc(C)n(-c3ccccc3C)c2C)N=C1C | active: 79.4 µM | –
67 | O=C(NCc1ccc(Cl)cc1)c1ncn[nH]1 | active: 79.4 µM | –
68 | COc1ccc(C2=Nn3c(nnc3-c3ccncc3)SC2)cc1OC | inconclusive: 89.1 µM [inhibitor, single point] | –
69 | C/C(=N\Nc1ccc(F)cc1)c1ccncc1 | inconclusive: 89.1 µM [inhibitor, single point] | –
70 | COc1cccc2c1OCC1COc3c(c(=O)n(C)c(=O)n3C)C21 (stereo unspecified) | inconclusive: 89.1 µM [inhibitor, single point] | –
71 | C=CCn1c(-c2ccncc2)n[nH]c1=S | inconclusive: 89.1 µM [inhibitor, single point] | –
